According to PubChem BioAssay AID488969 (Vanderbilt High Throughput Screening Facility, 2010):
Whole data set: some 110,000 compounds, median “z-score” near -0.1, cut for the highest 2% near 2. The list shows a part of the results. Calls of active or inactive are those of the source.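 How the source made its calls: active means z-score in the third read window above 3 or below -3; inactive means the rest.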

These molecules were tested against Metabotropic glutamate receptor 8 (Rattus norvegicus) (UniProt P70579) (assay: rat mGluR8 modulators via GIRK flux, primary screen, cell-based, thallium flux, HTS (AID 488969)). Settings: HEK293 rat mGluR8, GIRK (G protein-gated inwardly rectifying potassium channel) thallium flux, FluoZin2; at 10 µM; stronger effect = higher value; submaximal glutamate (EC20) added with thallium.
Sequence of UniProt P70579 (P70579 whole entry, looked up): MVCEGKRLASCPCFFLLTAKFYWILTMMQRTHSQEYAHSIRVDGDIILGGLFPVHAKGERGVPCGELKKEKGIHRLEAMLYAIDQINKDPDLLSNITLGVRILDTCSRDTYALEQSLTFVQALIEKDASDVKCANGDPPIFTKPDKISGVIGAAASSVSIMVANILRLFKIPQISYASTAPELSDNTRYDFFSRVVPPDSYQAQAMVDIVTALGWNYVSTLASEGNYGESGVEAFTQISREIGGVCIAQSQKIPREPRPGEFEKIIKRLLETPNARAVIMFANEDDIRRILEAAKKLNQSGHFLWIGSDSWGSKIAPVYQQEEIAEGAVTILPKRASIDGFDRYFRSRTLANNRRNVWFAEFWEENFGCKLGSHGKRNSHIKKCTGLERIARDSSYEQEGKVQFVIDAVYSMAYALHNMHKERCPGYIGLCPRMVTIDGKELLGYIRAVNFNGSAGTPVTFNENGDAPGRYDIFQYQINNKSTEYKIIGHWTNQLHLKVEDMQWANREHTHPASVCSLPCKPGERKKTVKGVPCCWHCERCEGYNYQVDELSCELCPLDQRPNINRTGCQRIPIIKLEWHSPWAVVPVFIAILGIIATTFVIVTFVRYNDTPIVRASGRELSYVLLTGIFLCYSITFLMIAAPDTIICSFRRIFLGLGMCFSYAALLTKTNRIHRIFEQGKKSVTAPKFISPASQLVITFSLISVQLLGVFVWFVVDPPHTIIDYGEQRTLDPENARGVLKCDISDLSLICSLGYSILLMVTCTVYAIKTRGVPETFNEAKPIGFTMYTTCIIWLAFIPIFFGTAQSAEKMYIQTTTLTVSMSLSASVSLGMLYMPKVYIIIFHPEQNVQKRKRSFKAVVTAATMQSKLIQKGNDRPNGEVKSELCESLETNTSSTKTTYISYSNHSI
`O=c1[nH]n(Cc2ccccc2)c(=O)c2ccccc12` gave a z-score of -0.204.
`CN1C(=S)SC(N(O)C(=O)Nc2ccccc2)C1(C)C` (stereo unspecified) gave a z-score of 0.201.
Molecule `O=C(Nc1ccc(S(=O)(=O)N2CCOCC2)cc1)c1ccc(CN2CCc3ccccc3C2)cc1` has a z-score of 1.33.
`CCOC(=O)N1CCN(C(=O)N2CCOCC2)CC1` was tested, and the z-score was 0.275.
`CC(=O)NC(c1cccs1)c1cc([N+](=O)[O-])c2cccnc2c1O` (stereo unspecified) gave a z-score of -1.44.
`COc1cccc(C(=O)NCC(=O)OCC(=O)Nc2cc(OC)c([N+](=O)[O-])cc2C)c1` was tested, and the z-score was -0.124.
`Cc1cc(C)n(-c2ccc(C(=O)Nc3ccccn3)cc2)n1` was tested, and the z-score was -0.653.
In the case of `Cc1cc(NC(=O)c2cnccn2)no1`, the z-score is reported as -0.0463.
`Cc1ccc(N2C(=O)CSCC2=O)cc1` was tested, and the z-score was 0.0594.
In the case of `CCOC(=O)Nc1ccc(OC)cc1S(=O)(=O)N1CCCCC1`, the z-score is reported as 0.612.
`CCOC(=O)c1c(-c2ccc(C)o2)csc1NC(=S)NC(=O)N(C)C` was tested, and the z-score was active: 13.6.
Work on `COc1ccc(OC)c2[nH]c(=O)c(CCNC(=O)c3ccc(S(=O)(=O)N4CCCC4)cc3)cc12` yielded a z-score of 0.244.
For `CC(=O)N1CCc2cc(S(=O)(=O)CCC(=O)N3CCN(c4ccccn4)CC3)ccc21`, the z-score was -0.124.
Work on `Cc1ccc(S(=O)(=O)Nc2ccc(Cl)cc2C(=O)c2ccccc2)cc1` yielded a z-score of -0.00219.
In the case of `Cc1ccccc1C(=O)N1CCC(C(=O)Nc2ccc3c(c2)OCO3)CC1`, the z-score is reported as 0.00741.
With `CC#CCCCC(=O)Nc1ccc(C(=O)O)cc1` the z-score was 0.878.
Work on `O=C(Nc1sc2c(c1C(=O)O)CCC2)c1ccco1` yielded a z-score of 0.028.
`CCOC(=O)C1=C(C)NC(C)=C(C(=O)OCC)C1C(=O)OCC(=O)NC(C)C` showed a z-score of 0.154.
For `O=C(Nc1ccc(Br)cc1)c1cnccn1`, the z-score was 0.158.
In the case of `O=C(c1cccc(F)c1)N1CCN(c2ccc([N+](=O)[O-])c(N3CCCCC3)c2)CC1`, the z-score is reported as -0.439.
`CCOc1ncccc1C(=O)N(C)CC(=O)Nc1ccccc1SC` showed a z-score of -0.119.
With `COCCCn1c(=N)c(C(=O)NCC2CCCO2)cc2c(=O)n3cccc(C)c3nc21` (stereo unspecified) the z-score was -0.218.
Molecule `CC(C)CNC(=O)CC(=O)N/N=C/c1ccc(Br)cc1` has a z-score of -0.0806.
Molecule `COc1cccc(OC)c1NC(=O)C1CCCN1C(=O)NCc1ccccc1` (stereo unspecified) has a z-score of -0.253.
Work on `O=C(CN1CCC(n2nnc3cc(C(F)(F)F)ccc32)CC1)N1CCc2ccccc21` yielded a z-score of -0.724.
`CCCc1nc2cc(CC(=O)OC)ccc2o1` showed a z-score of 0.0788.
With `CC1OC23CCCCC2C(C#N)(C(=N)O3)C1(C#N)C#N` (stereo unspecified) the z-score was 1.17.
`CC(=O)N1CCN(c2ccccc2NC(=O)COc2cc(C)ccc2C(C)C)CC1` gave a z-score of -1.18.
With `Cc1cc(C)c(N=Cc2c(O)n(-c3nccs3)c(=O)c3ccccc23)c(C)c1` the z-score was -0.767.
Work on `CCCCOc1ccc(CSc2ncn[nH]2)cc1` yielded a z-score of 0.244.
Molecule `O=C(N/N=C1\CCCc2c1[nH]c1ccc([N+](=O)[O-])cc21)c1ccncc1` has a z-score of -0.000819.
